{"source": "PubChem BioAssay (Tox21)", "key": {"[1]": {"target": "Aryl hydrocarbon receptor (Homo sapiens) (UniProt P35869)", "sequence (P35869 whole entry, looked up)": "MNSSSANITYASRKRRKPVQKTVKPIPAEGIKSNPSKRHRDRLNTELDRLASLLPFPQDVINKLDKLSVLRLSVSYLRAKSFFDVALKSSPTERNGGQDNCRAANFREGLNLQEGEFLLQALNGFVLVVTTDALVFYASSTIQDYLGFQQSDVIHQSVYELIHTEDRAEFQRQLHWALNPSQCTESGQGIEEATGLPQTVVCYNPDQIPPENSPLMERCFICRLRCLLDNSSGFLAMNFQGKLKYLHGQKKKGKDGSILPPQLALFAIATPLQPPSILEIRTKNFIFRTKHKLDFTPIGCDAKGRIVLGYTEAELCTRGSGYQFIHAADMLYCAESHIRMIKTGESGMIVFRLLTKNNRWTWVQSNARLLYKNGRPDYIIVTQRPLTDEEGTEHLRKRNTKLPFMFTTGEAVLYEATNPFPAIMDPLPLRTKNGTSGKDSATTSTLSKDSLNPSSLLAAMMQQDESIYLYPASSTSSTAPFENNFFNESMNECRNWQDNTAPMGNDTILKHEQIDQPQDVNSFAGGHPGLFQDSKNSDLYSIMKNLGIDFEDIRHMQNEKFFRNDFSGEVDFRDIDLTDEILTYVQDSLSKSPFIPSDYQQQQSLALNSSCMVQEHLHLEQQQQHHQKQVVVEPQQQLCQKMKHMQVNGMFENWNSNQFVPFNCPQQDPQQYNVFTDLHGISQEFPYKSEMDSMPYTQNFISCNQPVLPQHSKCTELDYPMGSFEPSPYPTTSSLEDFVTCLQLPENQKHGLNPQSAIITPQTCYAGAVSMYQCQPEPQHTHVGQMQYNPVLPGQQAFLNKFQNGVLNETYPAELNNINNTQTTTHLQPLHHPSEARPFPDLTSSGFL", "test": "qHTS assay to identify small molecule that activate the aryl hydrocarbon receptor (AhR) signaling pathway (AID 743085); also: potency is read from the fitted curve at half-maximal effect; nearly all actives have a fitted effect of over 15% in size", "method_in_brief": "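Steps: seed HepG2-AhR-luc cells; allow 5 h at 37C; pin-transfer test compound or vehicle; incubate 24 h at 37C; add viability dye (30 min, 37C) and read fluorescence; add luciferase substrate (30 min, RT) and read luminescence.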"}, "[2]": {"test": "qHTS assay to identify small molecule that activate the aryl hydrocarbon receptor (AhR) signaling pathway - cell viability counter screen (AID 743086); also: nearly all actives have a fitted effect of over 45% in size; also: potency is read from the fitted curve at half-maximal effect;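 as to viability change, negative = cytotoxic: HepG2 liver cells carrying the AhR DRE luciferase reporter; % is scaled to controls: 0 for no effect and ±100 for the full control effect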", "method_in_brief": "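HepG2-AhR-luc (HG2L7.5c1) cells, 4000/well, treated 24 h at 37 C with compound; viability measured as CellTiter-Fluor fluorescence after 30 min in the same wells as the luciferase read.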"}, "[3]": {"target": "Peroxisome proliferator-activated receptor gamma (Homo sapiens) (UniProt P37231)", "sequence (P37231 whole entry, looked up)": "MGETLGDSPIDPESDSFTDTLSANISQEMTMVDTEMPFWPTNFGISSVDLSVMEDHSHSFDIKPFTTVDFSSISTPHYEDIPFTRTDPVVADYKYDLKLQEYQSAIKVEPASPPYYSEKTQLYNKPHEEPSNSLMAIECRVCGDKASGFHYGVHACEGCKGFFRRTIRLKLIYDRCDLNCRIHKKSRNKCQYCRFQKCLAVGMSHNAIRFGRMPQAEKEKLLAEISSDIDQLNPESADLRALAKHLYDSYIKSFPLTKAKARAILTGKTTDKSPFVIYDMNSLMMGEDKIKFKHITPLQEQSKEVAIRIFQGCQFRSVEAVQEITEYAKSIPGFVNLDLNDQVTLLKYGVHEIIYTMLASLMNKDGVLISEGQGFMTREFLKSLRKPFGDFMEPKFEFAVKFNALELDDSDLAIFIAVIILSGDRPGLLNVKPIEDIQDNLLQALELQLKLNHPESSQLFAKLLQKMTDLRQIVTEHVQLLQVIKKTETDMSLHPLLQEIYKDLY", "test": "qHTS assay to identify small molecule agonists of the peroxisome proliferator-activated receptor gamma (PPARg) signaling pathway (AID 743094; active = well fitted activation curve with a large enough effect in the signal ratio in the repeat runs, not every such curve was filed as active; inconclusive = weak or mixed curves, or effect the other way; inactive = no such curve, though single readings can be large or run the other way; the % refers to the signal ratio; also: % is scaled to controls: 0 for no effect and ±100 for the full control effect)", "conditions": "HEK293H PPARg-UAS-bla, beta-lactamase FRET ratio, 17 h; activation: at 57 µM (top of the series) unless noted", "method_in_brief": "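GeneBLAzer PPARg UAS-bla HEK293H cells carrying a stably integrated beta-lactamase reporter were pre-incubated 5 h at 37C, then exposed to compounds in DMSO for 17 h at 37C; LiveBLAzer B/G FRET substrate was added for 1 h at room temperature and fluorescence read.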"}, "[4]": {"target": "Peroxisome proliferator-activated receptor gamma (Homo sapiens) (UniProt P37231)", "test": "qHTS assay to identify small molecule antagonists of the peroxisome proliferator-activated receptor gamma (PPARg) signaling pathway (AID 743191; calls by dose curve; also: potency is read from the fitted curve at half-maximal effect; nearly all actives have a fitted effect of over 30% in size)", "conditions": "HEK293H PPARg-UAS-bla, beta-lactamase ratio, antagonist, 17 h; ratio activity, negative = inhibition: at 62.6 µM (top of the series) unless noted", "method_in_brief": "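GeneBLAzer PPARg UAS-bla HEK293H cells, 5 h post-plating, exposed to compounds 17 h at 37C. LiveBLAzer B/G FRET substrate added for 1 h at room temperature; beta-lactamase reporter read by fluorescence intensity.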"}, "[5]": {"test": "qHTS assay for small molecule agonists of the antioxidant response element (ARE) signaling pathway (AID 743202; active = well fitted activation curve with a large enough effect in the signal ratio in the repeat runs, not every such curve was filed as active; inconclusive = weak or mixed curves, or effect the other way; inactive = no such curve, though single readings can be large or run the other way; the % refers to the signal ratio; also: potency is read from the fitted curve at half-maximal effect)", "conditions": "HepG2 ARE-bla reporter, beta-lactamase FRET, 16 h; activation: at 73.3 µM (top of the series) unless noted", "method_in_brief": "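ARE-bla HepG2 cells (beta-lactamase reporter under the antioxidant response element), plated 5 hours, then exposed to compounds 16 hours at 37 C. LiveBLAzer B/G FRET substrate added for 2 hours at room temperature; fluorescence intensity read.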"}, "[6]": {"test": "qHTS assay for small molecule agonists of the antioxidant response element (ARE) signaling pathway - cell viability counter screen (AID 743203; calls by dose curve; also: potency is read from the fitted curve at half-maximal effect; nearly all actives have a fitted effect of over 55% in size)", "conditions": "ARE-bla HepG2 viability, CellTiter-Glo luminescence, 16 h; viability change, negative = cytotoxic: at 73.3 µM (top of the series)", "method_in_brief": "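CellSensor ARE-bla HepG2 cells, 2,000 per well, rested 5 hrs at 37C/5% CO2, then exposed to compound in DMSO for 16 hrs; viability read as CellTiter-Glo luminescence after 30 min at room temperature, in the reporter wells.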"}, "[7]": {"test": "qHTS assay for small molecule activators of the heat shock response signaling pathway (AID 743210; active = well fitted activation curve with a large enough effect in the signal ratio in the repeat runs, with a control signal flat, not every such curve was filed as active; inconclusive = weak or mixed curves; the % refers to the signal ratio; also: % is scaled to controls: 0 for no effect and ±100 for the full control effect)", "conditions": "HeLa HSE-bla reporter, beta-lactamase ratio, 5 h; activation: at 62.6 µM (top of the series) unless noted", "method_in_brief": "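HSE-bla HeLa cells (beta-lactamase reporter under heat shock response elements), plated overnight, then exposed to compounds 5 h at 37 C; LiveBLAzer B/G FRET substrate added, 2.5 h at room temperature, fluorescence intensity read.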"}, "[8]": {"test": "qHTS assay to identify small molecule agonists of the peroxisome proliferator-activated receptor delta (PPARd) signaling pathway - cell viability counter screen (AID 743211); also: potency is read from the fitted curve at half-maximal effect; nearly all actives have a fitted effect of over 55% in size", "conditions": "PPARd-bla HEK293H viability, CellTiter-Glo luminescence, 17 h; activity change, negative = cytotoxicity: at 62.6 µM (top of the series)", "method_in_brief": "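Viability of GeneBLAzer PPARd UAS-bla HEK293H cells was assessed after 17 h compound incubation at 37C, using CellTiter-Glo reagent added after the reporter read and luminescence recorded 30 min later.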"}}, "note": "This list was built around the results that the source calls inconclusive (neither active nor inactive); the mix of calls is not that of the screen. For some of these results: Potencies of inconclusive entries are doubtful fits and often do not repeat. Active and inactive are the calls of the source. Unless noted, calls follow the shape of the dose curve; as a rule, active = well fitted curve in the direction sought with a large enough effect in the repeat runs; inconclusive = weak or mixed curves; inactive = no such curve, though single readings can be large; an effect the other way counts as inactive or inconclusive. Tags tell the direction and shape of the fitted curve or compound fluorescence and quenching."}
{"smiles": "Nc1ccc2cc(S(=O)(=O)O)cc(O)c2c1N=Nc1ccccc1C(F)(F)F", "values": [{"measurement": "Potency", "setting": "[1]", "value": "inconclusive: 48.6 µM [activator, partial curve, poor fit]"}, {"measurement": "Potency", "setting": "[2]", "value": "inconclusive: 30.6 µM [falling, partial curve]"}]}
{"smiles": "O=C1c2c(O)ccc(Nc3ccc(CCO)cc3)c2C(=O)c2c([N+](=O)[O-])ccc(O)c21", "values": [{"measurement": "Potency", "setting": "[1]", "value": "active: 6.86 µM"}, {"measurement": "Potency", "setting": "[2]", "value": "inconclusive: 54.5 µM [falling, partial curve]"}, {"measurement": "activation", "setting": "[3]", "value": "inconclusive: -15.8%"}, {"measurement": "Potency", "setting": "[4]", "value": "active: 54.9 µM"}, {"measurement": "Potency", "setting": "[5]", "value": "inconclusive: 27.3 µM [falling, partial curve, poor fit]"}, {"measurement": "Potency", "setting": "[6]", "value": "inconclusive: 12.2 µM [rising, partial curve, poor fit]"}, {"measurement": "Potency", "setting": "[7]", "value": "inactive"}]}
{"smiles": "CC(=O)OCCN(CCOC(C)=O)c1ccc(N=Nc2ccc([N+](=O)[O-])cc2C#N)cc1", "values": [{"measurement": "Potency", "setting": "[1]", "value": "inconclusive: 27.3 µM [activator, partial curve]"}, {"measurement": "Potency", "setting": "[2]", "value": "inactive"}, {"measurement": "Potency", "setting": "[5]", "value": "inconclusive: 6.86 µM [rising, full curve]"}, {"measurement": "Potency", "setting": "[7]", "value": "inactive"}]}
{"smiles": "Nc1ccc(N)c([N+](=O)[O-])c1", "values": [{"measurement": "Potency", "setting": "[1]", "value": "active: 24.3 µM"}, {"measurement": "Potency", "setting": "[2]", "value": "inconclusive: 34.4 µM [falling, partial curve]"}, {"measurement": "Potency", "setting": "[8]", "value": "inconclusive: 27.5 µM [cytotoxic, partial curve, poor fit]"}]}
{"smiles": "Oc1ccc(N=Nc2ccccc2)cc1", "values": [{"measurement": "Potency", "setting": "[1]", "value": "active: 61.9 µM"}, {"measurement": "Potency", "setting": "[2]", "value": "inconclusive: 61.9 µM [falling, single point]"}, {"measurement": "activation", "setting": "[3]", "value": "inconclusive: -18.3% [at 78.9 µM]"}, {"measurement": "Potency", "setting": "[4]", "value": "inconclusive: 19.8 µM [rising, full curve, poor fit]"}, {"measurement": "Potency", "setting": "[5]", "value": "inconclusive: 8.75 µM"}, {"measurement": "Potency", "setting": "[8]", "value": "inconclusive: 55.7 µM [cytotoxic, single point]"}]}
